In PubChem BioAssay AID504332 (National Center for Advancing Translational Sciences (NCATS), 2011):
In all, about 350,000 compounds went through this assay and about 31,000 (8.9%) were called active. The inconclusive results got no clear call from the source; some entries with a clear call stand among them for comparison. Calls follow the shape of the dose curve; as a rule, active = well fitted inhibition curve with a large enough effect; inconclusive = small, poorly fitted or top-dose-only effect; inactive = no such curve, though single readings can be large or run the other way. A potency beside an inconclusive call is a rough fit, not a confirmed value.

What follows are compounds tested against Histone-lysine N-methyltransferase EHMT2 (Homo sapiens) (UniProt Q96KQ7) (assay: qHTS Assay for Inhibitors of Histone Lysine Methyltransferase G9a). Details: G9a H3K9 monomethylation, AlphaScreen, 2 h; activity, negative = inhibition: at 59 µM (top of the series) unless noted.
In short: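 Step 1: enzyme (final 20 nM) with compound, 15 min RT. Step 2: substrate peptide 500 nM and SAM 20 uM, 2 h RT. Step 3: anti-H3K9me1 antibody and AlphaScreen beads, 10 min, then plate read.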
% is scaled to controls: 0 for no effect and ±100 for the full control effect; potency is read from the fitted curve at half-maximal effect; tags tell the direction and shape of the fitted curve.
Also: nearly all actives have a fitted effect of over 75% in size.

Sequence of UniProt Q96KQ7 (Q96KQ7 whole entry, looked up): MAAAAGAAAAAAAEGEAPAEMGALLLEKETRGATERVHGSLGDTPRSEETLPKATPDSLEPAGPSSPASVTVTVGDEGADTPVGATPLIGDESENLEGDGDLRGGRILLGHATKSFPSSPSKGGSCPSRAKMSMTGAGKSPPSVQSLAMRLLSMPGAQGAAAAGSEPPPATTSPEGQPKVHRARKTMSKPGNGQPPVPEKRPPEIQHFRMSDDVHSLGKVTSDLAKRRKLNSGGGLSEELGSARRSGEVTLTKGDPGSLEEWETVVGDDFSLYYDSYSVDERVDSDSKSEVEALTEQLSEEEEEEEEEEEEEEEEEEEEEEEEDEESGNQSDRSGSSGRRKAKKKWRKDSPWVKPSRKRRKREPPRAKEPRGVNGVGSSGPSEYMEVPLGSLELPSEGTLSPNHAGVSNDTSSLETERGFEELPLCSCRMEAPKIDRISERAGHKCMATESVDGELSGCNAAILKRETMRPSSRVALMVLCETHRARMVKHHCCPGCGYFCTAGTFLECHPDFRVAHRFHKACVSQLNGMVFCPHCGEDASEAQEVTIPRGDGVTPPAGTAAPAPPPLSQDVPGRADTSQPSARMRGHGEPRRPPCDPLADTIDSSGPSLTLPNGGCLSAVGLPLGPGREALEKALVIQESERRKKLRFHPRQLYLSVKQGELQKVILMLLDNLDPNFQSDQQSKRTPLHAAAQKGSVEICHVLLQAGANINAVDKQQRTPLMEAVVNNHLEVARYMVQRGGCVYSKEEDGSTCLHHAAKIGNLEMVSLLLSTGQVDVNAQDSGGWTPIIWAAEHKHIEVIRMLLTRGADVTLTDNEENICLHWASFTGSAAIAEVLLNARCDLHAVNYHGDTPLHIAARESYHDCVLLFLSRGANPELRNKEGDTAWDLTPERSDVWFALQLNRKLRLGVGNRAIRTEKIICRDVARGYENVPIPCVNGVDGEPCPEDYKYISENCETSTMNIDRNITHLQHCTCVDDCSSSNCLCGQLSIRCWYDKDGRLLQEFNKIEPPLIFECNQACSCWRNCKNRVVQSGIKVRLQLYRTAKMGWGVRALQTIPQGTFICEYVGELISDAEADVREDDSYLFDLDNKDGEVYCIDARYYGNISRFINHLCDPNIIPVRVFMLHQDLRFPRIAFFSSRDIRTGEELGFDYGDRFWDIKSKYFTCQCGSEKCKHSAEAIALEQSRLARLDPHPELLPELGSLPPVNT

SMILES | Potency | activity, negative = inhibition
CNC(=O)c1ccc(CSc2nc3ccncc3n2Cc2ccc(C)cc2)cc1 | inconclusive: 28.2 µM [inhibitor, partial curve, poor fit] | 
CN(C)/C=C(\C#N)C(=O)Nc1ccc(F)cc1 |  | inactive: 28.1% [at 0.501 µM]
COc1cccc(CNC(=O)c2cc3c(cc2Cl)N2CCCCCC2=NS3(=O)=O)c1 | active: 11.2 µM | 
O=C(COC(=O)CNC(=O)c1cccc([N+](=O)[O-])c1)NCc1ccco1 | inactive | 
CCOC(=O)C1=C(N)n2c(s/c(=C/c3ccco3)c2=O)=C(C(=O)OC)C1c1ccco1 (centres undefined) | inconclusive: 3.98 µM [inhibitor, single point] | 
C#CCOCCOCCOCCNc1nc(N2CCN(C(=O)[C@H](CCC(=O)O)n3cc(C(N)CC(C)C)nn3)CC2)nc(N2CCN(C(=O)[C@H](Cc3ccc(O)cc3)n3cc(C(N)CC(C)C)nn3)CC2)n1 (some centres undefined) |  | inconclusive: -89.4% [inhibitor]
CC(=O)N(CCC(Cc1ccccc1)c1ccco1)Cc1ccco1 (centres undefined) | inconclusive: 20 µM [inhibitor, single point] | 
Cc1ccc(Nc2nc(C3CC3)cs2)cc1 | active: 39.8 µM | 
BrC(=C\c1ccccc1)/C=N/N1CCN(c2ccccn2)CC1 | active: 28.2 µM | 
Cc1csc(=NC(=O)c2ccccc2)n1Cc1ccco1 | inconclusive: 79.4 µM [inhibitor, single point] | 
Cc1[nH]c2ccccc2c1C(=O)NS(=O)(=O)Nc1ccccc1 | inconclusive: 50.1 µM [inhibitor, partial curve] | 
COc1cnc(-c2ccccn2)nc1Oc1cccc(Cl)c1 |  | inactive: -3.37% [at 12.7 µM]
O=C(OCC(=O)N1CCOCC1)c1ccc2ccccc2c1O |  | inconclusive: -81.5% [inhibitor] [at 12.7 µM]
CCCCCn1ccc(=N)cc1 | inconclusive: 35.5 µM [inhibitor, full curve, poor fit] | 
CCOc1ccc(-c2noc(CSc3nnc(Cc4ccccc4)n3-c3cccc(C)c3)n2)cc1 | inactive | 
Cc1noc(NS(=O)(=O)c2ccc(NC(=O)c3ccc(Br)o3)cc2)c1C | inconclusive: 89.1 µM [inhibitor, single point] | 
CCc1nnc(NC(=O)C2CC(=O)N(C3CCCC3)C2)s1 (centres undefined) | inconclusive: 89.1 µM [inhibitor, single point] | 
CC1CN(c2ccc([N+](=O)[O-])c(NCCOc3ccccc3)c2)CCN1 (centres undefined) | inconclusive: 50.1 µM [inhibitor, partial curve] | 
Cc1cccc(/C=C2\CCC(=C3SCCCS3)C2=O)c1 | active: 50.1 µM | 
